From PMC12231567
No constants are given. Whether binding was seen depends on the method and setting. For part of these data: Binding seen in cells or lysates may run through a third protein. Some results given as binding are weak or reduced against the parent protein; the word gives no strength. Sequences can lack the tags named with a protein.

By UniProt entry, the sequences of proteins in these tests, tags left out.
UniProt Q94AH6: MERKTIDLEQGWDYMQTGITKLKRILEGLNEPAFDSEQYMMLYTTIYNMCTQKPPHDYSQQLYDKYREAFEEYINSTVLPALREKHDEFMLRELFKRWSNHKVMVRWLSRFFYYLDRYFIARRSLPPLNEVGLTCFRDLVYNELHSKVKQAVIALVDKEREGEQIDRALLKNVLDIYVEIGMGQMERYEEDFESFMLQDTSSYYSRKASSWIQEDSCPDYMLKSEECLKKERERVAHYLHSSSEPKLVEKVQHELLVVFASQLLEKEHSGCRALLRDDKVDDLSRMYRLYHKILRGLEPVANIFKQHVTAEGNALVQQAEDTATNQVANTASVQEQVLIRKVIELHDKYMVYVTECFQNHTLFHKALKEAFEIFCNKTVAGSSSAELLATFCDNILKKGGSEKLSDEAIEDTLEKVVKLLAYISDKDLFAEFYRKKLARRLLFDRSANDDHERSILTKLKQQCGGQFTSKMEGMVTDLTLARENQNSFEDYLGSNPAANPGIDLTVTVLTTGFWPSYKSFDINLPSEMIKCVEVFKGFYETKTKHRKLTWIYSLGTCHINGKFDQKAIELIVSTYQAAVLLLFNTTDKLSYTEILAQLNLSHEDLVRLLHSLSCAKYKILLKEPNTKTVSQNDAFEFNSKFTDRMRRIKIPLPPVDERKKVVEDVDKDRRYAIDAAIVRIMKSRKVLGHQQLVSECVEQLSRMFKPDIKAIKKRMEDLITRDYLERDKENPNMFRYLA

T1: APC10 fused to a Venus fragment and HA (BiFC and Co-IP) (Arabidopsis thaliana) (UniProt Q9ZPW2)
T1 sequence: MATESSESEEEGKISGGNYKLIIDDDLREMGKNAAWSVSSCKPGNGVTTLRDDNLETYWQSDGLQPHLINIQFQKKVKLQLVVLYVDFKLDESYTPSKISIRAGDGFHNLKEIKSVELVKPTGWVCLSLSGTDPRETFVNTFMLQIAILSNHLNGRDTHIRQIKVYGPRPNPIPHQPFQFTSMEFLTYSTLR

T2: APC2 fused to a Venus fragment (BiFC) (Arabidopsis thaliana) (UniProt Q8H1U5)
T2 sequence: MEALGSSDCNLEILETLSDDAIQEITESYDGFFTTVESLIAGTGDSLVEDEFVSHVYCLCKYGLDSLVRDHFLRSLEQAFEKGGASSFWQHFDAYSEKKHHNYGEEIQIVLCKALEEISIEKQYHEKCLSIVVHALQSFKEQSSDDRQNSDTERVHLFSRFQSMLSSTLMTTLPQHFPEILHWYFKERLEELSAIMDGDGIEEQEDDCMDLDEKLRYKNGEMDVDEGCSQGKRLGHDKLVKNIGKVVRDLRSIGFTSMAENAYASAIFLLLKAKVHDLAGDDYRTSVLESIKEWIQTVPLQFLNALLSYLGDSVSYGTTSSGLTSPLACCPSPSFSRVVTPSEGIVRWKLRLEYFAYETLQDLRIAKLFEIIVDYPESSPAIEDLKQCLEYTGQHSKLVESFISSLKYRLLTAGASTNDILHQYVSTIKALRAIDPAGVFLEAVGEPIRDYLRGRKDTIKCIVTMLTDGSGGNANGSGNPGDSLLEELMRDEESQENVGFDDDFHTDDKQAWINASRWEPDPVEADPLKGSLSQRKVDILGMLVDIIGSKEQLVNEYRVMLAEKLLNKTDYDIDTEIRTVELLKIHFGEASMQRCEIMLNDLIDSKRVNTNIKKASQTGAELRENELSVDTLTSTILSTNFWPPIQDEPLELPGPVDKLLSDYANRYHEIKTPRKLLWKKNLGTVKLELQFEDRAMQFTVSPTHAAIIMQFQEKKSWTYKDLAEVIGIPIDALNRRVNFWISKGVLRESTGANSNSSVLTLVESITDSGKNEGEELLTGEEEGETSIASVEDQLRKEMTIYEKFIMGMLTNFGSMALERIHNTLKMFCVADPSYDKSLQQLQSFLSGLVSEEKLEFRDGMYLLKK

T3: CDC20.1 fused to a Venus fragment and HA (BiFC and Co-IP) (Arabidopsis thaliana) (UniProt Q9SZA4)
T3 sequence: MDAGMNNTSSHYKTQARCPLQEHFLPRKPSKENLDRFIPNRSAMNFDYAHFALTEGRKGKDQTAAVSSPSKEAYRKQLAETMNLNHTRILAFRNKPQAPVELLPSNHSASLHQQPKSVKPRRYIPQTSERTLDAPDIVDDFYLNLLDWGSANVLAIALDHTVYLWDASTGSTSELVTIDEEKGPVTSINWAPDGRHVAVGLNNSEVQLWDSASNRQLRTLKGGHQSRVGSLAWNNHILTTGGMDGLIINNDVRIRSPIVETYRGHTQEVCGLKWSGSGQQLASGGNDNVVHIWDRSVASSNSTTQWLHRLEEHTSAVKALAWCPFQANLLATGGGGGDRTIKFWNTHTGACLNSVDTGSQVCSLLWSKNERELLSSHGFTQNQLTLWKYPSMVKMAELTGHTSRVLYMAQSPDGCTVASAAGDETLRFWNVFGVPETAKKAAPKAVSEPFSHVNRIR

T4: CUL3 fused to a Venus fragment (BiFC) (Arabidopsis thaliana) (UniProt Q9ZVH4)
T4 sequence: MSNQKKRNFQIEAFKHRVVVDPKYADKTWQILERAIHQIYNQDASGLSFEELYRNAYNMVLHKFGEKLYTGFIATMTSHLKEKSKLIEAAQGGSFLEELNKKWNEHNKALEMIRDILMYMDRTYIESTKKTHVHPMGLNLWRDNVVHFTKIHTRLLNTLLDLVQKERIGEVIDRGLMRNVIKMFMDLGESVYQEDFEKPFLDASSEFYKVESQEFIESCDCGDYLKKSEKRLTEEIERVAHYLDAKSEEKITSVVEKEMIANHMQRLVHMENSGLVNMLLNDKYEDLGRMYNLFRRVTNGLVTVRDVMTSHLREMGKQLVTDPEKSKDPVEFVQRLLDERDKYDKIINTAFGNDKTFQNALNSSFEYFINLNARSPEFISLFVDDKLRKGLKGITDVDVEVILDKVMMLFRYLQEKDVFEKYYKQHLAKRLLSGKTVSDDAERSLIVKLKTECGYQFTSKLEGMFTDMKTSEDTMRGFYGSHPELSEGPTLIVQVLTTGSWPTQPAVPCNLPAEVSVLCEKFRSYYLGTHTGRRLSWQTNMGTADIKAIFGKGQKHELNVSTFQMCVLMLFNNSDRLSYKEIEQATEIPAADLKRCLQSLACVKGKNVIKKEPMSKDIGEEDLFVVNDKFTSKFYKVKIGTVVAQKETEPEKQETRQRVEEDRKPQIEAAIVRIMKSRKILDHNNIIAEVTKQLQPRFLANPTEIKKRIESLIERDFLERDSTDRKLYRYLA

T5: UBC20 fused to a Venus fragment (BiFC) (Arabidopsis thaliana) (UniProt Q8L7T3)
T5 sequence: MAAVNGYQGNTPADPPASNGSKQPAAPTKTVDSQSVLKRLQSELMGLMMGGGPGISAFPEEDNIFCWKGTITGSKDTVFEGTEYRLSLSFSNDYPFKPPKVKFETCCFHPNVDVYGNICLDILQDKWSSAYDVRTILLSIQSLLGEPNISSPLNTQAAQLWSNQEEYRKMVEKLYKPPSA

T6: UBC19 fused to a Venus fragment (BiFC) (Arabidopsis thaliana) (UniProt Q9LJZ5)
T6 sequence: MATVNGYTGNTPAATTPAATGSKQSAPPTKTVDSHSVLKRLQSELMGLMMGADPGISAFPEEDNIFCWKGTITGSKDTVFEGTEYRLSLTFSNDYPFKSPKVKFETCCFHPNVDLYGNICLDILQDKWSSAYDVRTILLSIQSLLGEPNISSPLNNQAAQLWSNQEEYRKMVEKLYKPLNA

T7: αKNL2-N (N-terminal fragment of αKNL2, 1 to 363 aa) fused to the GAL4 DNA-binding domain (Arabidopsis thaliana) (UniProt F4KCE9)
T7 sequence: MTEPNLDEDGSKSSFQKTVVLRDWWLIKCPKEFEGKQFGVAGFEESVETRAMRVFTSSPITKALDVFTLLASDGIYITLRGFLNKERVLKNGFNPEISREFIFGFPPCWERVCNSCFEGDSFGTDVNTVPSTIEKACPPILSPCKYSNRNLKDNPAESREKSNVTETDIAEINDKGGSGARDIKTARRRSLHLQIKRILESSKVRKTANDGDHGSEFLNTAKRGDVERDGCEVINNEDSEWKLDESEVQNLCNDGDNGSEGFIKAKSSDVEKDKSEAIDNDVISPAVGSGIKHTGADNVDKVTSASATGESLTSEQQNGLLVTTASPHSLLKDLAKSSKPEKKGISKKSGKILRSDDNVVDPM


Experiments:
[1] = target: T1, APC10 fused to a Venus fragment and HA (BiFC and Co-IP) (Arabidopsis thaliana); experiment: split reporter; BiFC in N. benthamiana leaves co-infiltrated with A. tumefaciens GV3101 carrying the VENn and VENc fusions (both directions) and HC-Pro; Venus fluorescence in nuclei; some combinations also scored after MG115
[2] = target: CUL1 fused to a Venus fragment (BiFC) (Arabidopsis thaliana) (UniProt Q94AH6); experiment: as above
[3] = target: T2, APC2 fused to a Venus fragment (BiFC) (Arabidopsis thaliana); experiment: as above
[4] = target: T3, CDC20.1 fused to a Venus fragment and HA (BiFC and Co-IP) (Arabidopsis thaliana); experiment: as above
[5] = target: T4, CUL3 fused to a Venus fragment (BiFC) (Arabidopsis thaliana); experiment: as above
[6] = target: T1, APC10 fused to a Venus fragment and HA (BiFC and Co-IP) (Arabidopsis thaliana); experiment: co-IP; CDC20.1-HA or APC10-HA coexpressed with αKNL2-C-cMYC in N. benthamiana leaves; total protein extracts precipitated with HA magnetic beads; blot with anti-cMYC and anti-HA
[7] = target: T3, CDC20.1 fused to a Venus fragment and HA (BiFC and Co-IP) (Arabidopsis thaliana); experiment: as above
[8] = target: T5, UBC20 fused to a Venus fragment (BiFC) (Arabidopsis thaliana); experiment: split reporter; BiFC in N. benthamiana leaves co-infiltrated with A. tumefaciens GV3101 carrying the VENn and VENc fusions (both directions) and HC-Pro; Venus fluorescence in nuclei; some combinations also scored after MG115
[9] = target: T6, UBC19 fused to a Venus fragment (BiFC) (Arabidopsis thaliana); experiment: as above
[10] = target: T7, αKNL2-N (N-terminal fragment of αKNL2, 1 to 363 aa) fused to the GAL4 DNA-binding domain (Arabidopsis thaliana); experiment: two-hybrid; cotransformation of pGBKT7 (BD, bait) and pGADT7 (AD, prey) into S. cerevisiae Y2H Gold; drop dilutions on -LT and -LTH (triple dropout) medium, 30 °C

Binder | binding [1] | binding [2] | binding [3] | binding [4] | binding [5] | binding [6] | binding [7] | binding [8] | binding [9] | binding [10]
αKNL2, full length, fused to a Venus fragment (BiFC) (protein, UniProt F4KCE9 1-598) MTEPNLDEDGSKSSFQKTVVLRDWWLIKCPKEFEGKQFGVAGFEESVETRAMRVFTSSPITKALDVFTLLASDGIYITLRGFLNKERVLKNGFNPEISREFIFGFPPCWERVCNSCFEGDSFGTDVNTVPSTIEKACPPILSPCKYSNRNLKDNPAESREKSNVTETDIAEINDKGGSGARDIKTARRRSLHLQIKRILESSKVRKTANDGDHGSEFLNTAKRGDVERDGCEVINNEDSEWKLDESEVQNLCNDGDNGSEGFIKAKSSDVEKDKSEAIDNDVISPAVGSGIKHTGADNVDKVTSASATGESLTSEQQNGLLVTTASPHSLLKDLAKSSKPEKKGISKKSGKILRSDDNVVDPMNYSGTKVKSAENKRKIDASKLQSPTSNVAEHSKEGLNNAKSNDVEKDVCVAINNEVISPVKGFGKRLSGTDVERLTSKNATKESLTSVQRKGRVKVSKAFQDPLSKGKSKKSEKTLQSNSNVVEPMNHFRSEAEEAEENLSWEKIKRKIDFDVEVTPEKKVKQQKTNAASTDSLGQKRSRSGRVLVSSLEFWRNQIPVYDMDRNLIQVKDGSETNSAPSKGKGSDSRKRRNLKIK | binds | no binding | binds | binds | no binding | – | – | – | – | –
αKNL2-C (364 to 599 aa) fused to a Venus fragment and cMYC (BiFC and Co-IP) (domain or fragment, UniProt F4KCE9 364-598) NYSGTKVKSAENKRKIDASKLQSPTSNVAEHSKEGLNNAKSNDVEKDVCVAINNEVISPVKGFGKRLSGTDVERLTSKNATKESLTSVQRKGRVKVSKAFQDPLSKGKSKKSEKTLQSNSNVVEPMNHFRSEAEEAEENLSWEKIKRKIDFDVEVTPEKKVKQQKTNAASTDSLGQKRSRSGRVLVSSLEFWRNQIPVYDMDRNLIQVKDGSETNSAPSKGKGSDSRKRRNLKIK | binds | no binding | binds | binds | no binding | binds | binds | no binding | no binding | –
APC2 fused to the GAL4 activation domain (protein, UniProt Q8H1U5 1-865) MEALGSSDCNLEILETLSDDAIQEITESYDGFFTTVESLIAGTGDSLVEDEFVSHVYCLCKYGLDSLVRDHFLRSLEQAFEKGGASSFWQHFDAYSEKKHHNYGEEIQIVLCKALEEISIEKQYHEKCLSIVVHALQSFKEQSSDDRQNSDTERVHLFSRFQSMLSSTLMTTLPQHFPEILHWYFKERLEELSAIMDGDGIEEQEDDCMDLDEKLRYKNGEMDVDEGCSQGKRLGHDKLVKNIGKVVRDLRSIGFTSMAENAYASAIFLLLKAKVHDLAGDDYRTSVLESIKEWIQTVPLQFLNALLSYLGDSVSYGTTSSGLTSPLACCPSPSFSRVVTPSEGIVRWKLRLEYFAYETLQDLRIAKLFEIIVDYPESSPAIEDLKQCLEYTGQHSKLVESFISSLKYRLLTAGASTNDILHQYVSTIKALRAIDPAGVFLEAVGEPIRDYLRGRKDTIKCIVTMLTDGSGGNANGSGNPGDSLLEELMRDEESQENVGFDDDFHTDDKQAWINASRWEPDPVEADPLKGSLSQRKVDILGMLVDIIGSKEQLVNEYRVMLAEKLLNKTDYDIDTEIRTVELLKIHFGEASMQRCEIMLNDLIDSKRVNTNIKKASQTGAELRENELSVDTLTSTILSTNFWPPIQDEPLELPGPVDKLLSDYANRYHEIKTPRKLLWKKNLGTVKLELQFEDRAMQFTVSPTHAAIIMQFQEKKSWTYKDLAEVIGIPIDALNRRVNFWISKGVLRESTGANSNSSVLTLVESITDSGKNEGEELLTGEEEGETSIASVEDQLRKEMTIYEKFIMGMLTNFGSMALERIHNTLKMFCVADPSYDKSLQQLQSFLSGLVSEEKLEFRDGMYLLKK | – | – | – | – | – | – | – | – | – | binds
